Measured values as given in PubChem BioAssay AID540267 (National Center for Advancing Translational Sciences (NCATS), 2011).
Among all 340,000 compounds or so, about 530 (0.16%) were called active. This list was built around the results that the source calls inconclusive (neither active nor inactive); the mix of calls is not that of the screen. No stated cut-off is given here; in the data, active means activity change below about -80%; inconclusive means between about -30% and that limit; inactive means weaker than that.
On the % scale 0 is the no-effect control and ±100 the full control effect.

Assay: Small Molecules that selectively kill Giardia lamblia: qHTS;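 further: parasites exposed to compound for two days anaerobically before the ATP read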
Settings: Giardia lamblia trophozoite viability; at 7.66 µM; hits give low values
Outline: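 ATP-content bioluminescence gauges trophozoite survival. Cells (100/well) receive compound and incubate anaerobically for 48 hrs at 37 deg C; detection reagent follows for 15-30 min at room temperature.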
With `CC[C@@H](C)[C@H](NC(=O)C1CCN(C(=O)[C@@H](NS(=O)(=O)c2ccc(C)cc2)C(C)C)CC1)C(=O)O` the activity change was inconclusive: -31.4% [inhibitor].
With `COc1ccc(CN2CCSCC2)c(OC)c1C` the activity change was inconclusive: -40.7% [inhibitor].
In the case of `Cc1ccnc(NC(=O)c2ccc(OCC3CCCO3)cc2)c1` (stereo not given), the activity change is reported as active: -84.5%.
In the case of `Clc1ccc(CN2CCC(c3ccccc3)CC2)cc1`, the activity change is reported as inconclusive: -38.9% [inhibitor].
For `O=C(/C=C/Nc1ccccc1Br)c1ccccn1`, the activity change was inconclusive: -69.3% [inhibitor].
With `CCN(c1ccccc1)S(=O)(=O)c1ccc(F)cc1C` the activity change was inconclusive: -36.8% [inhibitor].
For `O=C1C=CC(=Nc2ccc(F)cc2)O1`, the activity change was inactive: -5.41%.
In the case of `Cc1cc(OCCCC(=O)Nc2cccc(-n3cnnn3)c2)ccc1Cl`, the activity change is reported as inconclusive: -36.7% [inhibitor].
In the case of `COc1ccc(Cn2c(=S)[nH]c3ccccc32)cc1`, the activity change is reported as inactive: -8.38%.
For `O=C(N/N=C/c1ccc([N+](=O)[O-])o1)c1cn(-c2ccccc2)nc1-c1ccccc1`, the activity change was active: -94.6%.
With `Cc1cc(C(=O)c2ccc3ccccc3c2)c(C)o1` the activity change was inactive: -9.82%.
In the case of `C=CCn1c(C)cc(C(=O)COC(=O)c2n[nH]c(=O)c3ccccc23)c1C`, the activity change is reported as inconclusive: -52.2% [inhibitor].
With `COc1ccc(CCNC(=O)CSc2nc3ncccc3[nH]2)c(OC)c1` the activity change was inactive: 14.2%.
In the case of `O=c1oc2cc(Br)ccc2n1CSC1=NCCS1`, the activity change is reported as inconclusive: -31.5% [inhibitor].
With `Cc1cccc(-n2nc3c(c2NC(=O)c2ccc4c(c2)OCO4)CS(=O)(=O)C3)c1C` the activity change was inactive: -14.4%.
For `COC(=O)c1ccc2nc(NC(=O)C(C)(C)C)sc2c1`, the activity change was inconclusive: -53.4% [inhibitor].
For `CN(C)c1ccc(NC2=C(Cl)C(=O)c3ccccc3C2=O)cc1`, the activity change was inactive: -2.16%.
With `O=[N+]([O-])c1cc(-c2ncccn2)cs1` the activity change was inconclusive: -35.3% [inhibitor].
With `Cc1cc(C)c2c(N)c(S(=O)c3ccc(C(C)(C)C)cc3)sc2n1` (stereo not given) the activity change was inactive: 10.5%.
With `CC(=O)c1ccc(NC(=O)COC(=O)c2ccccc2N=Nc2ccc(N(C)C)cc2)cc1` the activity change was inconclusive: -50.6% [inhibitor].
With `C/C(=N\NC(=O)CN(c1ccc(Oc2ccccc2)cc1)S(C)(=O)=O)C(C)(C)C` the activity change was inconclusive: -37.3% [inhibitor].
With `Cc1ccc([C@@H]2[C@@H]3C(=O)N(c4ccccc4)C(=O)[C@@H]3[C@]3(C)C(=O)N(Cc4ccc(-c5ccccc5)cc4)CC(=O)N23)o1` the activity change was inactive: 9.48%.
In the case of `CCCn1nc(NS(=O)(=O)c2cccc3nonc23)c2cc3cc(C)ccc3nc21`, the activity change is reported as inconclusive: -33.8% [inhibitor].
For `O=C(Nc1nc(-c2ccccn2)cs1)c1ccc([N+](=O)[O-])o1`, the activity change was inconclusive: -31.9% [inhibitor].
With `Cc1onc(-c2c(Cl)cccc2Cl)c1C(=O)NC(=S)N1CCOCC1` the activity change was inconclusive: -40.1% [inhibitor].
With `C=CCN(C(=O)c1csnn1)C(C(=O)NC1CCCCC1)c1ccc(F)cc1` (stereo not given) the activity change was inactive: -3.6%.
For `CN(CC(=O)Nc1ccccc1Br)C(=O)c1ccccc1-c1nc2ccccc2s1`, the activity change was inactive: -9.55%.
With `CC(C)CNC(=O)c1cccc(Cn2cc(Cl)cn2)c1` the activity change was inactive: -6.68%.
With `CCS(=O)(=O)CCn1c([N+](=O)[O-])cnc1C` the activity change was active: -85.8%.
For `O=C(Nc1ccc(Cl)cn1)c1ccc2c(c1)OCCO2`, the activity change was inconclusive: -34.4% [inhibitor].
With `COc1ccc(NC(=O)c2csc(C)c2)cc1OC` the activity change was inconclusive: -34.8% [inhibitor].
For `COc1ccc(CCNCC(O)COc2cccc(Br)c2)cc1OC` (stereo not given), the activity change was inconclusive: -30.5% [inhibitor].
In the case of `Clc1ccccc1Nc1nnc(-c2ccncc2)s1`, the activity change is reported as inconclusive: -30.4% [inhibitor].
For `Cc1c(Cl)cccc1NC(=O)C(=O)NNS(=O)(=O)c1ccc(F)cc1`, the activity change was inactive: 14%.
For `Cc1ncc(CO)c(/C=N/NC(=O)c2cc3c(s2)CCCC3)c1O`, the activity change was inconclusive: -53% [inhibitor].
With `Cc1ccc(C(=O)NC(=S)NCC2CCCO2)cc1[N+](=O)[O-]` (stereo not given) the activity change was inconclusive: -33.2% [inhibitor].
For `COc1ccccc1-c1ccc(SCC(=O)NCCc2ccccc2)nn1`, the activity change was inconclusive: -38.6% [inhibitor].
For `CC(C)Oc1cc(O)c2c(=O)c(-c3ccc(O)cc3)coc2c1`, the activity change was inconclusive: -48.6% [inhibitor].
In the case of `COc1ccc2nc(Nc3nc(-c4cc5ccccc5oc4=O)cs3)sc2c1`, the activity change is reported as inconclusive: -40.8% [inhibitor].
With `Cc1cc(C(=O)NCC(C)(C)N2CCOCC2)c(C)o1` the activity change was inconclusive: -32.8% [inhibitor].
In the case of `CC(C)(C)OC(=O)N[C@@H](C(=O)OC(C)(C)C)c1ccccc1`, the activity change is reported as inconclusive: -33.9% [inhibitor].
With `CCC(C)(C)C1CCC2(CC1)NC(=O)N(CC(=O)N(C)CCOc1ccc(Cl)cc1)C2=O` (stereo not given) the activity change was inactive: -0.0494%.
In the case of `Cc1cccc(NCc2ccc(O)c3ncccc23)c1`, the activity change is reported as inconclusive: -36.4% [inhibitor].
For `O=C(Nc1nc2cc3c(cc2s1)OCCO3)C1=COCCO1`, the activity change was active: -86.3%.
With `CCC1CCc2c(sc(NC(=O)CSc3nc(-c4ccco4)cc(C(F)(F)F)n3)c2C#N)C1` (stereo not given) the activity change was inconclusive: -30.3% [inhibitor].
In the case of `CCCCCN=Cc1c(C)[nH]n(-c2nc3ccccc3s2)c1=O`, the activity change is reported as inconclusive: -59.1% [inhibitor].
In the case of `O=C(Nc1ccc(Br)cc1F)c1ccc2c(c1)N(Cc1ccccc1)C(=O)CS2=O` (stereo not given), the activity change is reported as inactive: -5.53%.
With `O=C(Nc1ccc2c(c1)OCCO2)c1ccc2nccnc2c1` the activity change was inconclusive: -36% [inhibitor].
For `CC(=O)NC(CC(C)C)C(=O)NC(Cc1ccccc1)C(=O)CCl` (stereo not given), the activity change was inactive: -1.04%.
With `Nn1c(N2CCCCC2)nc2ccccc21` the activity change was inconclusive: -39.5% [inhibitor].
With `CC(C)Cc1csc(NC(=O)c2ccc(Cl)cc2)c1C(=O)O` the activity change was inconclusive: -30.8% [inhibitor].
In the case of `CCCC(C)n1[nH]c(=O)cc1N` (stereo not given), the activity change is reported as inactive: -14%.
For `O=C1SCCC1NS(=O)(=O)c1ccccc1[N+](=O)[O-]` (stereo not given), the activity change was inconclusive: -32% [inhibitor].
With `CC1(C)C(=O)C2(CCCCC2)C(=O)OC1C(=O)c1ccccc1` (stereo not given) the activity change was inconclusive: -36.9% [inhibitor].
With `Cc1ccc(CN2CC(C(=O)Nc3cc(C)ccn3)CC2=O)cc1` (stereo not given) the activity change was inconclusive: -36.8% [inhibitor].
For `CCc1nnc(NC(=O)CSc2nc(C)cc(C)c2C#N)s1`, the activity change was inconclusive: -48.8% [inhibitor].
With `CC(O)(CS(=O)(=O)Cc1cccc(C(F)(F)F)c1)C(=O)Nc1cccc(C(F)(F)F)c1` (stereo not given) the activity change was inactive: -6.54%.
For `O=C(NCc1ccco1)c1ccc(S(=O)(=O)N2CCCCC2)cc1`, the activity change was inconclusive: -39.5% [inhibitor].
With `O=C(/C=C/c1ccco1)NCC(=O)N/N=C/c1ccccc1[N+](=O)[O-]` the activity change was inactive: 0.342%.
With `COc1ccccc1CNC(=O)COC(=O)/C=C/c1ccc2c(c1)OCO2` the activity change was inactive: 5.15%.
In the case of `COc1cc(CC(=O)OCC(=O)Nc2ccc(N(C)C)cc2)cc(OC)c1OC`, the activity change is reported as inactive: 0.769%.
For `Cc1ccc(-n2ccn(CC(=O)NCCc3ccccc3)c(=O)c2=O)cc1C`, the activity change was inconclusive: -35.1% [inhibitor].
With `O=C(Nc1cccc(Br)c1)C1CCCC1` the activity change was inconclusive: -36% [inhibitor].
For `O=C1NC(=O)c2cc([N+](=O)[O-])cc3cccc1c23`, the activity change was inconclusive: -42.8% [inhibitor].
For `COc1ccc(-c2cc(C(=O)N3CCOCC3)c3cc(C)ccc3n2)cc1`, the activity change was inconclusive: -30.2% [inhibitor].
For `CCSc1nnc(NC(=O)c2ccccn2)s1`, the activity change was inconclusive: -32% [inhibitor].
In the case of `O=C(COc1ccc(Cl)cc1)Nc1ncc([N+](=O)[O-])s1`, the activity change is reported as active: -86.4%.
In the case of `COc1cc(CCCN2C(=O)C(=O)NC[C@@H]2Cc2ccc(O)cc2)cc(OC)c1OC`, the activity change is reported as inconclusive: -38.5% [inhibitor].
With `Cc1ncc([N+](=O)[O-])n1CCOC(=O)NC(NCc1ccccc1)C(Cl)(Cl)Cl` (stereo not given) the activity change was inconclusive: -70.6% [inhibitor].
For `O=c1c2c(-c3cccs3)csc2[nH]c(=S)n1-c1ccccc1`, the activity change was inactive: 12.1%.
In the case of `O=C(NC(=S)Nc1ccc(Cl)cn1)c1cccs1`, the activity change is reported as inconclusive: -41.8% [inhibitor].
With `O=C(CCN1C(=O)C2CC=CCC2C1=O)Nc1ccccc1Cl` (stereo not given) the activity change was inactive: -1.4%.
In the case of `Cc1c(OC(C)C(=O)O)ccc2c(-c3ccccc3)cc(=O)oc12` (stereo not given), the activity change is reported as inconclusive: -35.2% [inhibitor].
For `Cc1nc(NC(=O)CC(C)C)sc1-c1csc(Nc2ccc(Cl)cc2)n1`, the activity change was inactive: 1.7%.
For `O=C1c2ccccc2C(=O)c2[nH]cnc21`, the activity change was inconclusive: -45.3% [inhibitor].
For `C[C@H](CO)N1C[C@H](C)[C@@H](CN(C)S(=O)(=O)c2ccc(F)cc2)Oc2c(NS(=O)(=O)c3ccc(F)cc3)cccc2C1=O`, the activity change was inconclusive: -42.1% [inhibitor].
With `Nc1ncnc2c1ncn2C1O[C@H](CO)[C@@H](O)[C@@H]1O` (stereo not given in full) the activity change was inconclusive: -53% [inhibitor].
For `FC(F)(F)c1nnc(-c2ccccc2)nc1Sc1ccc(Cl)cc1`, the activity change was inactive: -10.2%.
In the case of `COC(=O)c1ccc(C(=O)OC)c(=O)[nH]1`, the activity change is reported as inconclusive: -41.8% [inhibitor].
In the case of `COc1ccc(CNC(=O)COc2cccnc2[N+](=O)[O-])cc1`, the activity change is reported as inconclusive: -48.4% [inhibitor].
